# Test results as given in article PMC4336329 (PLoS ONE, 2015).
# In all, about 310,000 compounds went through this assay and about 2,200 (0.71%) showed an effect of 50% or more. Effects have a minus sign here. The list shows a part of the results.
# Target: human ether-à-go-go-related gene (hERG) potassium channel (human, UniProt Q12809)
# Assay: primary screen, population patch clamp on CHO cells stably expressing hERG
# Sequence of human ether-à-go-go-related gene (hERG) potassium channel (Q12809 whole entry, looked up): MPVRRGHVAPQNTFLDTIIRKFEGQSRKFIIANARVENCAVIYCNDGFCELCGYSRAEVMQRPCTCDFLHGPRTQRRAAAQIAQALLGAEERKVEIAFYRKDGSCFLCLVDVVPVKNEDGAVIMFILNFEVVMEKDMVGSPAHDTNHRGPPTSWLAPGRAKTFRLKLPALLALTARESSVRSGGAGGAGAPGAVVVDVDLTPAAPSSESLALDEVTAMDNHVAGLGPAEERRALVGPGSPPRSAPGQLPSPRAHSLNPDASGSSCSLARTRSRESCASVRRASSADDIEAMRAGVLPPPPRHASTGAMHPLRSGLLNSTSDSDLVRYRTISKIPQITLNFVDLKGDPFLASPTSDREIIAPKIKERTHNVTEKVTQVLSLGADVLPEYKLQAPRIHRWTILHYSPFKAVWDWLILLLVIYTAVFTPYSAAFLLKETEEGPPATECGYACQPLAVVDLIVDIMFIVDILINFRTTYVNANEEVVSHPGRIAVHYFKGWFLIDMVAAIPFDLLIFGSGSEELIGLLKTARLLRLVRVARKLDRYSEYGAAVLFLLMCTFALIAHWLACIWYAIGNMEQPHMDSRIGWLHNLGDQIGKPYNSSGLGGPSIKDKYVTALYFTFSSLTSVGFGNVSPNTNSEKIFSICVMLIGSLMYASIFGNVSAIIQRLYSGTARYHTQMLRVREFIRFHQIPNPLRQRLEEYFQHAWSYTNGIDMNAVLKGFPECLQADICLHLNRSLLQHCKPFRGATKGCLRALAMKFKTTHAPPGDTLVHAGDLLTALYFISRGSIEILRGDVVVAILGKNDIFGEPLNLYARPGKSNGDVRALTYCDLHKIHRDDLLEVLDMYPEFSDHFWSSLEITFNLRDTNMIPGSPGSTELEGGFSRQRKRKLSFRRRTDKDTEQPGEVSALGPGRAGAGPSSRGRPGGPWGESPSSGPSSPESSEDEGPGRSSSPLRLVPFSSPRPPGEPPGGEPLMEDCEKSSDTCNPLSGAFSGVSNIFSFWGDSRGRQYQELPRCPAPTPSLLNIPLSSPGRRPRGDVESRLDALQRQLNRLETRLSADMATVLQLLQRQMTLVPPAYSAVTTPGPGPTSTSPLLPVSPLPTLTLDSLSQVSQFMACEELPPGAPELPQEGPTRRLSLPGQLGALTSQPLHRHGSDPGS
row,SMILES,"hERG current change (%, negative = inhibition) at 1uM"
1,COc1cc2ccccc2cc1C(=O)N(CCN(C)C)c1nc2c(C)cccc2s1.Cl,16.3%
2,O=c1c2ccccc2nc(-c2ccco2)n1/N=C/c1ccccc1O,7.11%
3,O=C1CCc2ccc(OCCCCN3CCN(c4cccc(Cl)c4Cl)CC3)cc2N1,9.3%
4,COc1cccc2sc(N(CCCN(C)C)C(=O)c3ccc(S(=O)(=O)N4CCc5ccccc5C4)cc3)nc12.Cl,9.59%
5,Cc1oc(C)c2c(=O)ccc3c(c12)OC(N)=C(C#N)C3c1ccccc1Cl (stereo not shown),8.67%
6,Cc1ccc(C(=O)Nc2ccccc2C(=O)NC2CCCCC2)cc1S(=O)(=O)N1CCOCC1,22%
7,O=C(C1=C[C@@H](c2ccccc2)C[C@@H](OCCCCO)O1)N1CCN(Cc2ccc3c(c2)OCO3)CC1,-10.6%
8,Cc1cc(Br)ccc1OCCCCN1CCCCC1.O=C(O)C(=O)O,-66.6%
9,Cc1ccc2c(c1)N(CC(=O)N1CCCCCC1)C(=O)CO2,6.11%
10,COc1ccc(C=C2C(=O)N(C)C(=O)N(C)C2=O)cc1COc1ccc(NC(C)=O)cc1,10.1%
11,Brc1cccc(OCCCCn2cncn2)c1,12.9%
12,Clc1ccc(-c2ccc(C=Nc3ccc(N4CCOCC4)cc3)o2)c(Cl)c1,6.06%
13,COc1ccc(N2CCN(C(=O)CN(c3ccc(OC)cc3)S(=O)(=O)c3ccccc3)CC2)cc1,-2.11%
14,Cc1cc(OC(C)C(=O)NC2CC(C)(C)NC(C)(C)C2)c2c(C)cc(=O)oc2c1 (stereo not shown),16.8%
15,O=C1c2cccc3cccc(c23)N1CN1CCN(c2ccccn2)CC1,14.6%
16,NS(=O)(=O)c1ccc(CCNC(=O)C2CCN(c3ncnc4c3nc3n4CCCCC3)CC2)cc1,12.5%
17,O=C(c1cc(Br)c(Br)s1)N1CCN(c2ccccn2)CC1,9.19%
18,Cc1c(NCc2ccccc2O)c(=O)n(-c2ccccc2)n1C,-2.78%
19,CCN1C(=O)C(=O)N(CC(=O)c2cc(C)n(C3CC3)c2C)C1=O,5.71%
20,COc1ccc(NC(=S)NC(NC(C)=O)C(Cl)(Cl)Cl)c([N+](=O)[O-])c1 (stereo not shown),8.28%
21,Cc1ccc(Cn2nnc3c(=O)n(CC(=O)NCc4ccc5c(c4)OCO5)cnc32)cc1,3.38%
22,CC(C)OCCCNC(=O)COc1ccc2oc3c(c2c1)CCCC3,11.1%

row,SMILES,"hERG current change (%, negative = inhibition) at 1uM"
1,O=C(Nc1cccc(N2C(=O)C3C4C=CC(C4)C3C2=O)c1)c1cccs1 (stereo not shown),14.8%
2,COCCn1c(SCC(=O)Nc2cccc(OC)c2)nnc1-c1ccccc1,3.2%
3,O=C(NCCCN1CCCC1=O)Nc1ccccc1F,13.1%
4,O=c1nc2ccc(Cl)cn2c2ccc(S(=O)(=O)N3CCOCC3)cc12,11.3%
5,CCCC(C)c1nnc(NC(=O)CS(=O)(=O)Cc2ccccc2)s1 (stereo not shown),3.48%
6,Cc1[nH]c(=O)[nH]c(=O)c1Sc1ccccc1[N+](=O)[O-],14.9%
7,CCCCCCNCC(=O)N1CCC(Cc2ccccc2)CC1,-49.9%
8,Cc1ccc2nsnc2c1NC(=O)c1ccc(-c2cc(Cl)ccc2Cl)o1,12.4%
9,COc1cc(C=O)ccc1OCCOCCOc1cc(C)ccc1Cl,-1.67%
10,COc1ccc2c(c1)OC1=C(C(=O)CCC1)C2C1=C(O)CCCC1=O (stereo not shown),14.7%
11,CC(CC(=O)O)CC(=O)Nc1cccc([N+](=O)[O-])c1 (stereo not shown),-0.875%
12,N#Cc1c(Sc2ncc(C(F)(F)F)cc2Cl)nsc1C/C=N\OCc1ccccc1Br,2.32%
13,COc1cccc(-n2cc(-c3ccc(F)cc3)[nH]c2=S)c1,14%
14,COc1cc(C(=O)N2CCc3ccccc32)c([N+](=O)[O-])cc1OC,14.1%
15,CC(NC(=O)Nc1ccc2c(c1)OCO2)C1CCCO1 (stereo not shown),6.5%
16,O=C(O)c1ccccc1-c1csc(-c2ccccc2)n1,13.1%
17,Cn1c(SCC(=O)Nc2ccc3c(c2)OCCO3)nnc1-c1cccnc1,12.9%
18,CCN(CC)c1ccc(/C=N/N2C(C)CCCC2C)c(O)c1 (stereo not shown),12.6%
19,Cc1ccc(NC(=O)NCc2c(C)nn(C)c2C)cc1Cl,12.4%
20,Cc1n[nH]c(C)c1N1C(=O)c2cccc3c(Br)ccc(c23)C1=O,6.88%
21,NC(=O)CSc1nnc(COc2ccccc2)n1Cc1ccco1,11%
